Values marked as one replicate rest on one cluster of the flow cell; about a third of the high ones do not repeat.
Tested on: ATP
Experiment: switch fluorescence ratio, 500 uM ATP over buffer (Cy3 cluster intensity, sum of 5 cycles each) (fold (ratio)); higher = stronger signal-on switching upon ATP binding; sequences stand for … in TCGTCGGCAGCGTCAGATGTGTATAAGAGACAGTTTTTTTTTTTTTTTTTTTTTTTTT…TC
Conditions: aptamer strand: ATP DNA aptamer (quencher-CACCTGGGGGAGTATTGCGGAGGAAGG + anchor), 100 nM annealed; ATP concentration: 500 uM; one replicate
Outline: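 After annealing to 100 nM quencher-labelled ATP aptamer, Cy3-labelled switching-strand clusters on a modified Illumina MiSeq flow-cell were imaged in selection buffer. A second image followed after 15 min with 500 uM ATP at 22 °C, and five such buffer/ATP cycles were done, each separated by NaOH stripping and re-annealing. The fluorescence ratio, averaged per switch-domain sequence, is summed target-cycle over summed buffer-cycle Cy3 intensity per cluster, with clusters outside 100-1000 RFU excluded.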
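Note: ATP exposure 15 min at 22 °C before imaging.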

| Sequence | switch fluorescence ratio |
| --- | --- |
| TCCAGTTATG | 0.996 |
| GCGTGTGTGG | 0.992 |
| AAGGTTTCTT | 1 |
| GTTTGAGAGG | 0.961 |
| TGATGTTG | 0.996 |
| GCTGTCGTTG | 1.02 |
| AATCAACGT | 1.02 |
| TCCATGGTTC | 0.988 |
| ACCTTCAGCA | 2.53 |
| CGTTCTGCAG | 0.945 |
| TGAAAGGTGT | 0.962 |
| GGGTGCTCTC | 0.98 |
| CAAAAGTACG | 1.05 |
| GGCAGAATT | 1.01 |
| TTTCCGATCT | 1.08 |
| CGGTTAACCG | 0.972 |
| CCCCACTCAA | 1.28 |
| TTAACCCGC | 1.13 |
| TAGCCCTGGA | 1.02 |
| AAAAAATATG | 1.03 |
| GGGACGTTCT | 1.01 |
| TTATCTAAC | 1.03 |

| Sequence | switch fluorescence ratio |
| --- | --- |
| AAACGGTCTA | 0.983 |
| TCGGTTTTGA | 0.991 |
| TTAGCAACGG | 1.01 |
| AGGGTGTATC | 1.01 |
| ATTTCTTTCC | 1.18 |
| GGGGAGTATC | 1.02 |
| ATGTCAGTCC | 1.01 |
| CTGCCACGAG | 1.07 |
| GATATCTCAT | 0.948 |
| TGATTTGCGG | 0.956 |
| AACAATTGGT | 0.994 |
| CAGGAACAAT | 1.26 |
| CTGACTTC | 1.1 |
| CGTTTTAAAT | 0.975 |
| GGATGGCAA | 0.986 |
| CAATTACGGG | 1.11 |
| ATCGTCGAGA | 1.01 |
| TCTGTTCCCG | 0.975 |
| ATTAAATCCT | 1.2 |
| TGTTGCTACT | 0.999 |
| ATAGGTTGGT | 0.988 |
| TACAGATGAT | 0.982 |

| Sequence | switch fluorescence ratio |
| --- | --- |
| TGTGCTGCGT | 0.996 |
| TAACTGGAAC | 1.06 |
| TAGTTCCTTG | 1 |
| CCGTCTCAAG | 1.07 |
| TTATGCCACT | 0.986 |
| GAAGTTAACG | 1.03 |
| TTACTAAGCA | 1.08 |
| AACGGGCAGC | 1.01 |
| GTAGAATGCA | 0.957 |
| GCTTGGCACG | 1.01 |
| TGCCGAGGGG | 1.05 |
| AGGTCGTGAT | 0.977 |
| GGGAACCTAC | 1.56 |
| GGGGATTA | 0.997 |
| CAGCACGATG | 0.989 |
| GGTCGGTCTT | 0.971 |
| ATATGCAGTC | 1.02 |
| GACATTGTGG | 1 |
| ACTAGCAGAG | 1 |
| CGAGGCCAAG | 1.02 |
| GATGAGTCGA | 0.98 |
| AGGCGACGTC | 1.01 |

| Sequence | switch fluorescence ratio |
| --- | --- |
| CCTGGACCCC | 1.12 |
| TGGAATCGCC | 1.01 |
| GCGCTTGGTT | 1.02 |
| TAACACGTTT | 1.01 |
| ATTATCCAGT | 0.976 |
| CCTGATCTTT | 0.972 |
| AAGCTCATCC | 1.07 |
| CCCCGTCGGA | 1.06 |
| AATTGGTCCA | 1.02 |
| ACCATTAAGC | 1.08 |
| TCAGTCGCGC | 1.04 |
| CGGATTGAT | 0.995 |
| ATTATTTCCG | 1.03 |
| TTGCGACCCT | 1.02 |
| CGTCTCGAAA | 1.02 |
| GGAGTATACC | 0.98 |
| CTCTCCTCTA | 1.22 |
| CGAAGGTTAT | 1.02 |
| CAAGGTTTGG | 0.973 |
